Results taken from PubChem BioAssay AID902 (National Center for Advancing Translational Sciences (NCATS), 2007).
Values joined by “and” are separate entries in the source; they are usually repeats but may differ in a detail not shown here. Identical values can stand only once. The campaign covered roughly 130,000 compounds. About 1,900 (1.5%) were called active. Inconclusive means that the source gave no clear call. Such entries were picked first, then a sample of the others. Calls follow the shape of the dose curve; as a rule, active = well fitted cell-killing curve with a large enough effect; inconclusive = small, poorly fitted or top-dose-only effect; inactive = no such curve, though single readings can be large or run the other way. A potency beside an inconclusive call is a rough fit, not a confirmed value.

Experiment: qHTS Screen for Compounds that Selectively Target Cancer Cells with p53 Mutations: Cytotoxicity of p53ts Cells at the Nonpermissive Temperature; also: nearly all actives have a fitted effect of over 55% in size
Conditions: H1299-p53A138V viability at 39C, ATP luminescence, 24 h; activity change, negative = cell killing: at 46.1 µM (top of the series)
% is scaled to controls: 0 for no effect and ±100 for the full control effect; potency is read from the fitted curve at half-maximal effect; tags tell the direction and shape of the fitted curve.

| SMILES | Potency | activity change, negative = cell killing |
| --- | --- | --- |
| C/C(N)=C(/C#N)C(=O)CSc1nc2ccc(C)cc2[nH]1 | inconclusive: 10 µM [cytotoxic, partial curve] |  |
| CC(=O)c1cccc(-n2c(=O)c3c4c(sc3n(CC(=O)c3ccc(Cl)cc3)c2=O)CN(C(C)=O)CC4)c1 | inconclusive: 31.6 µM [cytotoxic, single point] |  |
| COc1cc2cc(C(c3nnnn3C3CCCC3)N3CCc4ccccc43)c(=O)[nH]c2cc1OC (stereo unspecified) |  | inactive: 3.81% |
| Cc1cccc(N2CCN(C(=O)Cn3ncc4c3-c3ccccc3OC4)CC2)c1C | inconclusive: 10 µM [cytotoxic, partial curve] |  |
| CCOC(=O)c1ccccc1NC(=O)c1ccc2c(Cl)c3c(nc2c1)CCC3 | inconclusive: 1 µM [cytotoxic, partial curve] |  |
| CCOc1ccc(NC(=O)CN2CCN(C3CCCCC3)C(=O)C2=O)cc1 | inconclusive: 0.0063 µM [cytotoxic, full curve, poor fit] |  |
| Cc1c(-c2cccc(NC(=O)Nc3ccccc3)c2)nc2ncccn12 |  | inactive: -23.6% |
| O=C(Oc1ccccc1)N1CCC2(CC1)CCN(c1ccccc1)CC2 | inconclusive: 12.6 µM [cytotoxic, partial curve] |  |
| CCCOc1ccc(C(=O)Nc2cccc(NC(=O)c3cccc(Cl)c3)c2)cc1 | inconclusive: 20 µM [cytotoxic, single point] |  |
| COCCn1c(C)cc(C(=O)CSc2nnc(C)s2)c1C | active: 12.6 µM |  |
| Cc1cccc(/N=C/c2c(O)[nH]c3ccccc23)n1 | inconclusive: 20 µM [cytotoxic, single point] |  |
| COc1ccc(C(=O)NCC(c2ccc(N(C)C)cc2)N2CCCC2)c(OC)c1 (stereo unspecified) | inconclusive: 20 µM [cytotoxic, partial curve] |  |
| Cc1ccc(S(=O)(=O)Nc2cccc(-c3ccc(N4CCCCC4)nn3)c2)s1 | active: 1 µM |  |
| Cc1ccc(C2c3[nH]c4ccccc4c3CCN2C(=O)Nc2ccc(C)c(C)c2)cc1 (stereo unspecified) | inconclusive: 0.01 µM [cytotoxic, full curve, poor fit] |  |
| NC(=O)c1ccsc1NC(=O)CSc1ccccc1F | inconclusive: 20 µM [cytotoxic, partial curve] |  |
| Cc1ccc(C)c(-c2csc(-c3c(N)c(C(=O)c4ccc5c(c4)OCO5)n4ccccc34)n2)c1 |  | inactive: -5.88% |
| CCCCCCCCC/C=C/CC1CC(=O)OC1=O (stereo unspecified) |  | inactive: 9.53% |
| CCc1ccc2nc(N3CCC(C(=O)O)CC3)sc2c1 | active: 6.31 µM |  |
| CCC(C(=O)N1CCN(c2cc(Cl)ccc2C)CC1)n1nc(C)n2c(cc3occc32)c1=O (stereo unspecified) | inconclusive: 31.6 µM [cytotoxic, partial curve] |  |
| O=C(CN1C(=O)CC(c2ccco2)Sc2ccccc21)Nc1cccc(C(F)(F)F)c1 (stereo unspecified) | inconclusive: 12.6 µM [cytotoxic, partial curve] |  |
| Cc1ccc(-c2nc(C)c(CCNC(=O)C(=O)Nc3cc(C)ccc3C)s2)cc1 |  | inconclusive: -34.9% [cytotoxic] |
| CCOc1ccc(C(=O)Nc2ccc3oc(-c4cccc5ccccc45)nc3c2)cc1 | active: 10 µM |  |
| COc1ccc(OC)c(NC(=O)N2CC(C)Oc3ccc(C)cc32)c1 (stereo unspecified) | inconclusive: 31.6 µM [cytotoxic, single point] |  |
| O=C(O)c1ccc(CSc2nnc(COc3ccc(Cl)cc3Cl)o2)cc1 | inconclusive: 15.8 µM [cytotoxic, single point] |  |

| SMILES | Potency | activity change, negative = cell killing |
| --- | --- | --- |
| COc1ccc(CCN(C)CCCOc2ccc(S(=O)(=O)c3[nH]c4ccccc4c3C(C)C)cc2)cc1OC | active: 12.6 µM |  |
| COc1ccc(C(=O)Nc2nc(-c3nnn(-c4ccc(F)cc4F)c3C)ns2)cc1 | inconclusive: 12.6 µM [cytotoxic, single point] |  |
| COC(=O)c1cc(S(=O)(=O)N2CCN(c3cc(Cl)ccc3C)CC2)c[nH]1 | inconclusive: 8.91 µM [cytotoxic, partial curve] |  |
| CC1=C(C(N)=O)C(c2ccccc2F)n2nc(-c3ccc(Cl)cc3)nc2N1 (stereo unspecified) | inconclusive: 12.6 µM [cytotoxic, single point] |  |
| CCOc1ccc(-c2nc(C(N)=O)c3c(n2)n(-c2ccc4c(c2)OCO4)c(=O)n3CC)cc1 | inconclusive: 15.8 µM [cytotoxic, single point] |  |
| CC(C)N1CCc2c(sc(NC(=O)c3ccc(S(=O)(=O)N(C)C4CCCCC4)cc3)c2C(N)=O)C1 | inconclusive: 2.51 µM [cytotoxic, partial curve] |  |
| COC(=O)C1C(=O)c2c([nH]c(C(=O)OCC3CCCO3)c2C)CC1C (stereo unspecified) | inconclusive: 15.8 µM [cytotoxic, partial curve] |  |
| CCCN1CCN(CCCNC(=O)c2ccc3c(c2)sc2nc(-c4ccc(OCC)cc4)cn23)CC1 | active: 12.6 µM |  |
| Cc1c(Cl)cccc1NC(=O)CSc1nc(=O)[nH]c2c1CCCC2 | inconclusive: 15.8 µM [cytotoxic, partial curve] |  |
| O=C(CSc1nnc(-c2ccco2)n1Cc1ccccc1)c1ccccc1 |  | inactive: -12.4% |
| FC(F)(F)c1ccccc1Cl |  | inactive: -21.5% |
| O=C1CN(C(=O)c2ccc(S(=O)(=O)N3CCCCC3)cc2)C(c2ccc(F)cc2)c2cc(Cl)ccc2N1 (stereo unspecified) | inconclusive: 0.631 µM [cytotoxic, full curve, poor fit] |  |
| CCN(CC)CCn1c(=N)n(CCOc2ccccc2Cl)c2ccccc21 | active: 10 µM |  |
| COc1ccc(-c2nc(C)c(CCNC(=O)c3ccco3)s2)cc1 | inconclusive: 20 µM [cytotoxic, partial curve] |  |
| Cc1ccc2nc(-c3ccc(N)cc3)sc2c1S(=O)(=O)O | active: 15.8 µM |  |
| COC(=O)c1cc2occc2n1Cc1nc(-c2ccccc2C)oc1C | inconclusive: 10 µM [cytotoxic, partial curve] |  |
| Cc1onc(-c2c(F)cccc2Cl)c1C(=O)OCN1C(=O)c2ccccc2C1=O |  | inactive: -3.6% |
| O=C(/C=C/Nc1ccc(F)c(Cl)c1)c1ccco1 | inconclusive: 15.8 µM [cytotoxic, single point] |  |
| O=C1c2ccccc2NC(c2ccc3c(c2)OCCO3)N1c1ccc2c(c1)OCCO2 (stereo unspecified) | active: 5.01 µM |  |
| CC(C)NC(=O)N1CC2(CCN(C(=O)c3ccco3)CC2)C1 |  | inactive: 2.85% |
| C=CCSc1n[nH]c(-c2ccc(OC)cc2)n1 | inconclusive: 12.6 µM [cytotoxic, single point] |  |
| O=C(Nc1ccc([N+](=O)[O-])cc1Cl)c1cc(Cl)ccc1O | active: 501 nM and active: 3.98 µM |  |
| Cc1ccc(C(C)C)c(OCC(=O)Nc2cccc(-c3nc4ncccc4o3)c2)c1 | active: 15.8 µM |  |
| O=C(CCSc1nc(-c2ccco2)cc(C(F)(F)F)n1)NCC1CCCO1 (stereo unspecified) |  | inactive: 1.29% |

| SMILES | Potency | activity change, negative = cell killing |
| --- | --- | --- |
| O=C(c1cccs1)N1CCc2ccccc21 | inconclusive: 15.8 µM [cytotoxic, single point] |  |
| COc1cccc(C(=O)Cn2c(=N)n(C)c3ccccc32)c1 | active: 5.01 µM |  |
| O=[N+]([O-])c1ccc(O)c(/C=N/Nc2ccccn2)c1 | active: 5.62 µM |  |
| COc1ccc(N(CC(=O)Nc2ccc(F)c(Cl)c2)S(=O)(=O)c2c(C)noc2C)cc1 | inconclusive: 25.1 µM [cytotoxic, single point] |  |
| COc1ccccc1NC(=O)c1nnn(-c2ccc(F)cc2)c1C |  | inactive: 26.7% |
| CNC(=O)C1CCC(Cn2c(=O)c3sccc3n(CC(=O)Nc3cc(F)ccc3F)c2=O)CC1 (stereo unspecified) |  | inactive: -19.9% |
| O=C(O)c1cc(-c2ccc3c(c2)OCO3)nc2ccccc12 | inconclusive: 10 µM [cytotoxic, partial curve] |  |
| O=C(Nc1ccc2oc(-c3cccc(Cl)c3Cl)nc2c1)c1cccc(Br)c1 | active: 10 µM |  |
| O=C(Nc1ccccc1C(F)(F)F)c1cc2ccccn2n1 | active: 7.94 µM |  |
| Nc1nc(Nc2ccccc2)nc2ccccc12 | active: 2.51 µM |  |
| CCOc1cc(CNCCSc2nnnn2-c2ccccc2)ccc1OC |  | inactive: -2.54% |
| COc1ccc(CNC(=O)C(c2cccs2)N(Cc2ccco2)C(=O)Cc2cccs2)cc1 (stereo unspecified) | inconclusive: 15.8 µM [cytotoxic, single point] |  |
| CCCCCCCNS(=O)(=O)c1cccc2c(Cl)cccc12 | inconclusive: 31.6 µM [cytotoxic, single point] |  |
| COc1ccc2c(Cl)c(-c3nnc4n3CCCCC4)sc2c1 |  | inactive: -2.94% |
| Nc1c(C(=O)NCc2ccccc2)nnn1Cc1cccc(Br)c1 | inconclusive: 17.8 µM [cytotoxic, single point] |  |
| COc1cccc(NC(=O)c2ccc(-c3nc(COc4ccc(C)cc4)c(C)o3)cc2)c1 | inconclusive: 12.6 µM [cytotoxic, partial curve, poor fit] |  |
| O=C(Nc1ccc(N2CCN(C(=O)c3ccccc3)CC2)c(Cl)c1)c1ccco1 | inconclusive: 12.6 µM [cytotoxic, single point] |  |
| Cc1cccc(-c2cc(=O)c3cc(Br)ccc3o2)c1 | inconclusive: 12.6 µM [cytotoxic, partial curve] |  |
| Cc1ccc(-c2noc(-c3ccccc3C(=O)NCC3CCCO3)n2)cc1 (stereo unspecified) | inconclusive: 15.8 µM [cytotoxic, single point] |  |
| CCOc1ccccc1CNC(=O)c1cc(-c2ccc(C)c(C)c2)nc2ccccc12 | inconclusive: 25.1 µM [cytotoxic, single point] |  |
| CC(=NC1CCCCC1)C1=C(O)c2ccccc2C1=O | inconclusive: 12.6 µM [cytotoxic, partial curve] |  |
| Cc1ccc(O)c(NC(=O)CCS(=O)(=O)c2nc(-c3ccc4c(c3)OCO4)cc(C(F)(F)F)n2)c1 | active: 3.16 µM |  |
| Cc1ccc(C)c(Cn2c3ccccc3c3cnn(CC(=O)NC(C)c4ccccc4)c(=O)c32)c1 (stereo unspecified) | inconclusive: 1.26 µM [cytotoxic, full curve] |  |
